Results reported in ChEMBL document CHEMBL4888484, “Replenishing the malaria drug discovery pipeline: Screening and hit evaluation of the MMV Hit Generation Library 1 (HGL1) against asexual blood stage Plasmodium falciparum ,using a nano luciferase reporter read-out” (2022).
About 540 (0.36%) of roughly 150,000 compounds showed an effect of 50% or more. The list shows a part of the results.

System: Plasmodium falciparum
Assay: Primary screen in NF54 nanoGlo assay, in single point, at 2uM, 72h; a lower Z score goes with more inhibition
Assay type: functional, Erythrocyte
Conditions: timepoint 72 hour

Row | SMILES | % Inhibition [%] | Z score | % Inhibition (2 µM) [%]
1 | Cc1cc(-c2nc(C(=O)N3CC[C@@H]4CCC[C@@H]43)co2)ccn1 | 15 | -1.96 | 
2 | Cc1c(CNCc2cccc(F)c2)c(C(=O)O)c(C)n1-c1ccccc1 | -7 | 1.25 | 
3 | COCCCN1CC(=O)N[C@@H]2CN(C(=O)c3ccnc(OC)c3)CC[C@@H]2OCc2cccc(c2)Oc2ccc(cc2OC)CCC1=O | 10 | -1.42 | 
4 | Cc1ccc(/C(=N/c2sc(-c3ccccc3)nc2-c2ccccc2)N2CCN(c3ccccc3)CC2)cc1 | -10 | 1.32 | 
5 | CCCN(Cc1cc(-c2ccc(OC)cc2OC)on1)C(=O)CC | -10 | 1.49 | 
6 | Cc1nc(N2CCCC2)nc(C)c1NC(=O)c1c(F)cccc1F | -2 | 0.3 | 
7 | c1ccc2c(c1)CC(NC1CCN(c3ccc(-n4cncn4)cc3)CC1)C2 | 14 | -1.88 | 
8 | O=C(Cc1ccccc1)n1cnc2ccccc21 | 12 | -1.4 | 
9 | COCC(=O)N1CC[C@@]2(O)CCN(C/C=C/c3ccc(OC)cc3)C[C@H]2C1 | -6 | 1.23 | 
10 | Cn1nc(-c2ccccc2F)c2cc(C(=O)N3CCc4ccccc4C3)sc21 | -3 | 0.45 | 
11 | Cc1cc2c(cc1C(=O)N(C)CCCc1nccn1C)OCCO2 | -13 | 1.63 | 
12 | O=c1c2ccccc2nc(-c2cccc(OCc3ccccc3)c2)n1C1CCCCC1 | -3 | 0.48 | 
13 | CCC(CC)(CNC(=O)NCCC(=O)Nc1ccc(Br)cc1)N(C)C | -16 | 1.91 | 
14 | O=C(Nc1ncccc1O)c1cc(O)ncn1 | 3 | -0.49 | 
15 | Cc1nn(C)c(=O)c2cc(S(=O)(=O)NCc3ccco3)cn12 | 6 | -0.77 | 
16 | CC1CCC2(C)c3[nH]c4ccccc4c3CCCN2C1=O (stereo not given) |  |  | -3
17 | OC(C1CCN(C2CCCCc3ccccc32)CC1)C(F)(F)F (stereo not given) | 0 | 0.03 | 
18 | O=S(=O)(c1ccoc1)N1CC2(CCCC2)C1 | -9 | 0.78 | 
19 | N#Cc1nc(C2CC2c2ccccc2)oc1N1CCCCC1 (stereo not given) | -13 | 1.73 | 
20 | CCOC(=O)c1cnn(-c2ccnc3cc(Cl)ccc23)c1CN1CCC(C(=O)OCC)CC1 | -14 | 1.96 | 
21 | CCc1cccc(C)c1NC(=O)CN(C)S(=O)(=O)c1cc2c(cc1C)NC(=O)[C@H](C)O2 | -6 | 0.52 | 
22 | CCOc1cc(C(=O)NCc2nc(COc3ccccc3)n[nH]2)n[nH]1 | -9 | 1.02 | 
23 | CCc1nc(C(=O)N2CCOCC[C@@H]2C)nn1-c1ccccc1 | -3 | 0.33 | 
